According to the supplement of paper PMC8728848:
Some of the results follow.

Tests used:
Assay in all cases: glycan array binding signal (z-score within array); higher = stronger binding
Settings in all cases: glycan notation: IUPAC condensed, linker removed
GalNAc(b1-3)Gal = target: GalNAc(b1-3)Gal
Outline: (§1)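 Glycan array binding is given as a within-array Z-score, which can be read as non-binding when negative. The arrays, 3228 of them, came from the Consortium for Functional Glycomics database and were retained only where the protein sequence was available. Z-scores were averaged across arrays of the same protein sequence at different concentrations or buffers and across linkers.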

[1] = target: GalNAc(b1-3)Gal(a1-4)Gal(b1-4)GlcNAc
Outline: as §1

[2] = target: GalNAc(b1-3)Gal(a1-4)Gal(b1-4)GlcNAc(b1-3)Gal(b1-4)Glc
Outline: as §1

[3] = target: GalNAc(b1-3)Gal(a1-6)Gal(b1-4)Glc
Outline: as §1

GalNAc(b1-3)GalNAc = target: GalNAc(b1-3)GalNAc
Outline: as §1

GalNAc(b1-3)GlcNAc = target: GalNAc(b1-3)GlcNAc
Outline: as §1

GalNAc(b1-4)Gal(b1-4)Glc = target: GalNAc(b1-4)Gal(b1-4)Glc
Outline: as §1

GalNAc(b1-4)GlcNAc = target: GalNAc(b1-4)GlcNAc
Outline: as §1

[4] = target: GalNAc(b1-4)GlcNAc(b1-2)Man
Outline: as §1

[5] = target: GalNAc(b1-4)GlcNAc(b1-2)Man(a1-3)[GalNAc(b1-4)GlcNAc(b1-2)Man(a1-6)]Man(b1-4)GlcNAc(b1-4)GlcNAc
Outline: as §1

[6] = target: GalNAc(b1-4)GlcNAc(b1-3)GalNAc(b1-4)GlcNAc
Outline: as §1

GalNAc(b1-4)GlcNAc6S = target: GalNAc(b1-4)GlcNAc6S
Outline: as §1

GalNAc(b1-6)GalNAc = target: GalNAc(b1-6)GalNAc
Outline: as §1

GalNAc3S(b1-4)GlcNAc = target: GalNAc3S(b1-4)GlcNAc
Outline: as §1

GalNAc3S(b1-4)GlcNAc3S = target: GalNAc3S(b1-4)GlcNAc3S
Outline: as §1

[7] = target: GalNAc3S(b1-4)[Fuc(a1-3)]GlcNAc
Outline: as §1

GalNAc4S6S(b1-4)GlcNAc = target: GalNAc4S6S(b1-4)GlcNAc
Outline: as §1

GalNAc6S(b1-4)GlcNAc = target: GalNAc6S(b1-4)GlcNAc
Outline: as §1

Glc(a1-4)Glc = target: Glc(a1-4)Glc
Outline: as §1

[8] = target: Glc(a1-4)Glc(a1-4)Glc(a1-4)Glc
Outline: as §1

Glc(a1-6)Glc(a1-6)Glc = target: Glc(a1-6)Glc(a1-6)Glc
Outline: as §1

[9] = target: Glc(a1-6)Glc(a1-6)Glc(a1-6)Glc
Outline: as §1

Glc(b1-4)Glc = target: Glc(b1-4)Glc
Outline: as §1

Glc(b1-6)Glc = target: Glc(b1-6)Glc
Outline: as §1

GlcA(b1-3)Gal = target: GlcA(b1-3)Gal
Outline: as §1

GlcA(b1-3)GlcNAc = target: GlcA(b1-3)GlcNAc
Outline: as §1

GlcA(b1-6)Gal = target: GlcA(b1-6)Gal
Outline: as §1

[10] = target: GlcA3S(b1-3)Gal(b1-4)GlcNAc(b1-2)Man
Outline: as §1

[11] = target: GlcA3S(b1-3)Gal(b1-4)GlcNAc(b1-3)Gal(b1-4)Glc
Outline: as §1

[12] = target: GlcNAc(a1-3)Gal(b1-4)GlcNAc
Outline: as §1

[13] = target: GlcNAc(a1-4)Gal(b1-3)GlcNAc
Outline: as §1

[14] = target: GlcNAc(a1-4)Gal(b1-4)GalNAc
Outline: as §1

[15] = target: GlcNAc(a1-4)Gal(b1-4)GlcNAc
Outline: as §1

[16] = target: GlcNAc(a1-4)Gal(b1-4)GlcNAc(b1-3)Gal(b1-4)Glc
Outline: as §1

[17] = target: GlcNAc(a1-4)Gal(b1-4)GlcNAc(b1-3)Gal(b1-4)GlcNAc
Outline: as §1

[18] = target: GlcNAc(a1-4)Gal(b1-4)GlcNAc(b1-3)Gal(b1-4)GlcNAc(b1-3)Gal(b1-4)GlcNAc
Outline: as §1

[19] = target: GlcNAc(a1-4)Gal(b1-4)GlcNAc(b1-3)Gal(b1-4)[Fuc(a1-3)]GlcNAc(b1-3)Gal(b1-4)[Fuc(a1-3)]GlcNAc
Outline: as §1

[20] = target: GlcNAc(a1-6)Gal(b1-4)GlcNAc
Outline: as §1

B1: GS7807P-bth-537-23-537 (Bacteroides thetaiotaomicron) (protein)
chain: NYENINSNPYEAPDLSADGYALGSAMNNLAGCVVSPDVNTAQFTDCLLGGPLGGYFADSNAGFTETISNFNPKDDWSRVFLKSDKIIPTLYSNLTQVKLVSQNTNDPVPYAIAQVIKVAAMHRVTDAFGPIPYSQIGANGEIATPYDSQEVTYNTFFDELNAAIATLNENSNEQLVPTADYIYKGDVKKWIRFANSLKLRLAIRIAYANPVKAQQMAEEAVNPANGGVIESNADNATWNYFETSQNPIYVATRYNQVQTSDHGGVPCLTGGDTHAAADIICYMNGYKDNRREKFFTKSEWAGQDYVGMRRGIVIPELKTTGHKYSGVNIAPTSPLYWMNAAEVAFLRAEGQAVFNFSMGGTAESFYNQGIRLSFEQWGADGVEDYLKDDVNKPTAYTDPAGTNTYQNALSNITIKWNDSADKEEKQERIIVQKWIANWQLGNEAWADFRRTGYPKLIPVKENKSGGVVDSEKGARRMPYPLDEFVSNKANVEYAIANYLHGADNMATDVWWASKK
glycan array binding signal (z-score) (GalNAc(b1-3)Gal): -0.153 | glycan array binding signal (z-score) [1]: 0.36 | glycan array binding signal (z-score) [2]: 0.217 | glycan array binding signal (z-score) [3]: -0.173 | glycan array binding signal (z-score) (GalNAc(b1-3)GalNAc): -0.288 | glycan array binding signal (z-score) (GalNAc(b1-3)GlcNAc): 0.368 | glycan array binding signal (z-score) (GalNAc(b1-4)Gal(b1-4)Glc): 0.06 | glycan array binding signal (z-score) (GalNAc(b1-4)GlcNAc): -0.232 | glycan array binding signal (z-score) [4]: -0.394 | glycan array binding signal (z-score) [5]: -0.087 | glycan array binding signal (z-score) [6]: -0.24 | glycan array binding signal (z-score) (GalNAc(b1-4)GlcNAc6S): -0.344 | glycan array binding signal (z-score) (GalNAc(b1-6)GalNAc): -0.355 | glycan array binding signal (z-score) (GalNAc3S(b1-4)GlcNAc): -0.394 | glycan array binding signal (z-score) (GalNAc3S(b1-4)GlcNAc3S): -0.283 | glycan array binding signal (z-score) [7]: -0.339 | glycan array binding signal (z-score) (GalNAc4S6S(b1-4)GlcNAc): -0.346 | glycan array binding signal (z-score) (GalNAc6S(b1-4)GlcNAc): 1.97 | glycan array binding signal (z-score) (Glc(a1-4)Glc): -0.309 | glycan array binding signal (z-score) [8]: -0.328 | glycan array binding signal (z-score) (Glc(a1-6)Glc(a1-6)Glc): -0.397 | glycan array binding signal (z-score) [9]: -0.369 | glycan array binding signal (z-score) (Glc(b1-4)Glc): -0.372 | glycan array binding signal (z-score) (Glc(b1-6)Glc): -0.372 | glycan array binding signal (z-score) (GlcA(b1-3)Gal): -0.369 | glycan array binding signal (z-score) (GlcA(b1-3)GlcNAc): -0.366 | glycan array binding signal (z-score) (GlcA(b1-6)Gal): 0.769 | glycan array binding signal (z-score) [10]: -0.341 | glycan array binding signal (z-score) [11]: -0.344 | glycan array binding signal (z-score) [12]: -0.399 | glycan array binding signal (z-score) [13]: -0.394 | glycan array binding signal (z-score) [14]: -0.138 | glycan array binding signal (z-score) [15]: -0.359 | glycan array binding signal (z-score) [16]: -0.375 | glycan array binding signal (z-score) [17]: 0.693 | glycan array binding signal (z-score) [18]: -0.356 | glycan array binding signal (z-score) [19]: -0.189 | glycan array binding signal (z-score) [20]: -0.168
